Source: the RNAGym collection of RNA variant scans (doi:10.1073/pnas.2313332121)
Variants at the background level are over-represented here.

B1: TPR 5TU (parent)
chain: GGAUCUUCUCGAUCUAACAAAAAAGACAAAUCUGCCACAAAGCUUGAGAGCAUCUUCGGAUGCAGAGGCGGCAGCCUUCGGUGGCGCGAUAGCGCCAACGUUCUCAACUAUGACACGCAAAACGCGUGCUCCGUUGAAUGGAGUUUAUCAUG

Variants of: B1
Test: polymerase ribozyme fitness, log enrichment relative to wild type (log ratio); higher = more active; in vitro selection for triplet polymerase activity
Method in brief: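 Each subunit of a heterodimeric triplet polymerase ribozyme was mutagenized into a library by PCR, transcribed, and subjected to one round of in vitro selection, run in triplicate. Libraries were annealed with a biotinylated primer, the partner subunit and triplets, incubated frozen at −7 °C, and extended constructs were gel-excised, captured on streptavidin beads and recovered by RT-PCR. Input and output libraries were sequenced on Illumina, keeping genotypes with ≥10 input reads and ≥1 read per output. Fitness is log base 2 of genotype enrichment divided by wild-type enrichment, from inverse-variance-weighted replicate averages.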

Going from GGAUGUUCUCGAUCUAACAAAAAAGACAAAUCUGCCACAAAGCUUGAGAGCAUCUUCGGAUGCAGAGGGGGCAGCCUUCGGUGGCGCGAUAGUGCCAACGUUCUCAACUAUGACACGCAAAACGCGUGCUCCGUUGAAUGGAGUUUAUCAUG to GGAUGUUCUCGAUCUAACAAAAAAGACAAAUCUGCCACAAAGCUUGAGAGCAUCUUCGGAUGCAGAGGCGGCAGCCUUCGGUGGCGCGAUUGCGCCAACGUUCUCAACUAUGACACGCAAAACGCGUGCUCCGUUGAAUGGAGUUUAUCAUG, the “polymerase ribozyme fitness (log ratio)” value falls from -4.12 to no more than -4.2.

GGAUGUUCUCGAUCUAACAAAAAAGACAAAUCUGCCACAACGUUUGAGAGCAUCUUCGGAUGCAGAGGCGGCAGCCUUCGGUGGCCCGAUAGCGCCAACGUUCUCAACUAUGACACGCAAAACGCGUUCUCCGUUGAAUGGAGUUUAUCAUG and GGAUGUUCUCGAUGUAACAAAAAAGACAAAUCUGCCACAAAGGUUGAGAGCAUCUUCGGAUGCAGAGGCGGCGGCCUUCGGUGGCGCGAUAUCGCCCACGUUCUCAACUAUGACACGCAAAACGCGUGCUCCGUUGAAUGGAGUUUAUCAUG cannot be ordered by “polymerase ribozyme fitness (log ratio)” value: no more than -4.2 for the first, no more than -4.2 for the second.

GGAUGUUCUCGAUCUAACAAAAAAGACAAAUCUGCCACACAGCUUGAGAGCAUCUUCGGAUGCAGAGGCGGCAGCUUUCGGUGGCGCGAUAACGCCAACGUUCUCAACUAUGACACGCAAAACGCGUGCUCCGUUGAAUGGAGUUUAUUAUG and GGAUGCUCUCGAUCUAACAAAAAAGUCAAAUCUGCCACAAAGCUUGAGAGCAUCUUUGGAUGCAGAGGCGGCAGCCUUCGGUGGCGCGAUAGCUCCAACUUUCUCAACUAUGACACGCAAAACGCGUGCUCCGUUGAAUGGAGUUUAUCAUG cannot be ordered by “polymerase ribozyme fitness (log ratio)” value: no more than -4.2 for the first, no more than -4.2 for the second.

First: GGAUGUUCUCGAUCUAACAAAAAAGACAAAUCUGCCACAAAGCUUGAGAUCAUCUUUGGAUGCAGAGGCGGCAGCCUUCGGUGGCGCGAUACCGCCAACGUUCUCAACUAUGACACGCAGAACGCGUGCUCCGUUGAAUGGAGUUUAUCAUG
Second: GGAUGUUCUCGAUCUAACAAAAAAGACAAAUCUGCCAUAAAGCUUGAGAACAUCUUCGGAUGCAGAGGCGGCAGCCUUCGGUGGCGCGAUAGCGCCAACGUUCUCAACUAUGACACGCAAAACGCGUGCUCCGUUGAAUGGAGUUUAUCAUG
The “polymerase ribozyme fitness (log ratio)” value of the first is lower: -2.75 for the first, -1.8 for the second.

First: GGAUGUUCUCGAUCUAACAAAAAAGACAAAUCUGCCACAAAGCUUGAGUGCAACUUCGGAUGCAGAUACGGCAGCCUUCGGUGGCGCGAUAGCGACAACGUUCUCAACUAUGACACGCAAAACGCGUGCUCCGUUGAAUGGAGCUUAUCAUG
Second: GGAUGUUCUCGAUCUAACAAAAAAGACAAAUCUGCCUCAAAGCUUGAGAGCAUCUUCGGAUGCAGAGGCGGCAGCCUUCGGUGGCGCGAUAGCGCCAACGUUCUCAACUAUGACACGCAAAACGCGUGCUCCGUUGAAUGUAGUUUAUCAUG
The “polymerase ribozyme fitness (log ratio)” value of the first is lower: no more than -4.2 for the first, -1.94 for the second.

GGAUGUUCUCGAUCUAACAAAAAAGACAAAUCUGCCACAAAGCUUGAGAGCGUCUUCGGAUGCAGAGGCGUCGGCAUUCGGUGGCGCUAUAGCGCCAACGUUCUCGACUAUGACACGCAAAACGCGUGCUCCGUUGAAUGGAGUUUAUCAUG and GGAUGUUCUCGAUAUAACAAAAAAGACAAAUCUGCGACAAAGCUUGAGAGCAUCUUCGGAUGCAGAGGCGGCAGCCUUCGGUGGCGCGAUAGCGCCAACGUUCUCAACUAUGACACGCAAUACGCCUGCUCCGUUGAAUGGAGUUUAUCAUG cannot be ordered by “polymerase ribozyme fitness (log ratio)” value: no more than -4.2 for the first, no more than -4.2 for the second.

Going from GGAUGUUCUCGAUCUAACAAAAAAGACAAAUUUGCCACAAAGCUUGAGAGCAUCUUCGGAUGCAGAGGCGGCAGCCUUCGGUGGCGCGAUAGCGCUAACGUUCUCAACUAUGACACGCAAAGCGCGUGCUCCGUUGAAUGGAGUUUAUCAUG to GGAUGUUCUCGAUCUAACAAAAAAGACAAAUCUGCCACAAAGCUUGAGUGCAUCUUUGGAUGCAGAGGCGGCAGCCUUCGGUGGCGCGAUAGGGCCAACGUUGUCAACUAUGACACGCAAAACGCGUGCUCCGUUGAAUGGAGCUUAUCAUG, the “polymerase ribozyme fitness (log ratio)” value falls from -3.38 to no more than -4.2.

GGAUGUUCUCGAUCUAACAAAAAAGACAUAUCUGCCACAAAGCUUGAGAGCAUCUUCGGAUGCUGAGGCGGCAGCCUUCGGUGGCUCGAUAGCGCCAACGUUCUCAACUAUGACACGCAAAACGCGUGCUCCGUUGAAUGGAGUUUAUCGUG and GGAUGUUCUCGAUCUAACAAAAAAGACAAAUCUGCUACAAAGCUUGAGAGCAUCUUCGGAUGCAGAGGCGGCAUCCUUCGGUGGCGCGAUAGCGCCAACGUUCUCAACUAUGACACGCAAAACGCGUGCUCCGUUGAAUGGAAUGUAUCAUG cannot be ordered by “polymerase ribozyme fitness (log ratio)” value: no more than -4.2 for the first, no more than -4.2 for the second.

GGAUGUUCUCGAUCUAACAAAAAAGACAAAUCUGCCACAAAGCUUGAGAGCAUCUUCGGUUGCACAGGCGGCAGCCGUCGGUGGCACGAUCGCGCCAACGUUCUCAACUAUGACACGCAAAACGCAUGCUCCGUUGAAUGGAGUUUAUCAUG and GGAUGUUCUCGAUCUAACAAAAAAGACACAUCUGCCACAAAGCUUGCGAACAUCUUCGGAUGCAGAGGCGGCAGCCUUCGGUGGCACGAAUGCGCCAACGUUCUCAACUAUGACACGCAAAACGCGUGCUCCGUUGAAUGGACUUUAUCAUG cannot be ordered by “polymerase ribozyme fitness (log ratio)” value: no more than -4.2 for the first, no more than -4.2 for the second.

With GGAUGUUCUCGAUCUAACAAAAAAGACAAAUCUGCCACAAAGCUUGAGAGCAUCUUCGGAUGCAGAGGCGGCAGCUUUCGGUGGCGCCAUAGCGCCAACGUUCUGAACUAUGACACGCAAAACGCGUGCUCCGUUGAAUGGAGUUUAUCAUG the “polymerase ribozyme fitness (log ratio)” value was no more than -4.2.
